What all share (assay): Viability of human cancer cell lines after 72 h of drug (GDSC screen)
Compound in test [1]: C=C(c1ccc(C(=O)O)cc1)c1cc2c(cc1C)C(C)(C)CCC2(C)C [Bexarotene]
The note with it: top dose 8 µM. The protocol:
(§1)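 Human cancer cell lines in 384-well plates, medium with 10% serum, drug for 72 h over a 256-fold dose range (nine 2-fold or five 4-fold steps up to the top dose). Adherent lines were fixed and stained with the nucleic acid dye Syto60, suspension lines read with resazurin; signal relative to control wells, capped at 0 and 100%. One two-parameter sigmoid per drug and line, fitted in a mixed model over all curves with the slope shared within a line.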

Compound in test [2]: COc1cc(C(=O)NC2CCN(C)CC2)ccc1Nc1ncc2c(n1)N(C1CCCC1)C(C)CC(=O)N2C [NPK76-II-72-1]
Conditions: top dose 10.24 µM; top dose inferred. The method, then:
as §1

Compound in test [3]: COc1ccc(C(=O)CC2(O)C(=O)Nc3c(Cl)ccc(Cl)c32)cc1 [YK 4-279]
The note with it: top dose 10 µM. The method, then:
as §1

Compound in test [4]: Cc1ccc2nc(NCCN)c3ncc(C)n3c2c1 [BMS-345541]
The note with it: top dose 16 µM. The protocol: as §1

Compound in test [5]: NC(=O)Nc1cc(-c2cccc(F)c2)sc1C(=O)N[C@H]1CCCNC1 [AZD7762]
The note with it: top dose 2 µM. The method, then:
as §1

Compound in test [6]: O=C(O)c1ccc(-c2c[nH]c3ncc(-c4ccccc4)cc23)cc1C1CCCC1 [GSK-650394]
The note with it: top dose 16 µM; top dose inferred. The method, then: as §1

Compound in test [7]: Oc1nc(-c2ccc(C(F)(F)F)cc2)nc2c1CSCC2 [XAV 939]
The note with it: top dose 5 µM; top dose inferred. The protocol:
as §1

For nine cell lines, AUC and IC50 results are on record in the supplement of paper PMC4967469.

By IC50 is meant the dose at which the fit gives 50% viability; a limit (>, <) means that the fit lies beyond the doses tested. For AUC the same curve is integrated over the 256-fold range of doses and scaled to a fraction; the more sensitive the line, the further below 1. For part of these data: A top dose marked as inferred was derived from the fitted curves, not read from the paper.

“MOLM-13 (acute myeloid leukaemia, suspension)”: the AUC in test [1] turned out to be 0.954; in test [2], 0.54; in test [3], 0.693; in test [4] it was 0.674; in test [5], 0.035; in test [6] it was 0.305. The AUC in test [7] worked out at 0.971. For the same cell line, the 50% inhibitory concentration (IC50) was > 8000 nM in test [1]; 815 nM in test [2]; 2090 nM in test [3]; 2950 nM in test [4]; < 7.81 nM in test [5]; 296 nM in test [6]. Further, in test [7], the half-maximal inhibitory concentration (IC50) is > 5000 nM.

For MOLP-8 (myeloma, suspension), the AUC in test [1] was found to be 0.985; in test [2] it was 0.523; in test [3] it was 0.722; in test [4], 0.453; in test [5] it was 0.647; in test [6], 0.969. In addition, the AUC in test [7] was determined as 0.985. Besides, the 50% inhibitory concentration (IC50) in test [1] was > 8000 nM; in test [2], 737 nM; in test [3] it was 2580 nM; in test [4], 749 nM; in test [5] it was 313 nM; in test [6], > 16000 nM. In test [7], the IC50 was > 5000 nM.

For MV-4-11 (leukaemia, suspension), the AUC was determined as 0.457 in test [1]; 0.707 in test [2]; 0.636 in test [3]; 0.81 in test [4]; 0.021 in test [5]; 0.23 in test [6]. The AUC in test [7] is 0.98. The 50% inhibitory concentration (IC50) in test [1] is 391 nM; in test [2], 2170 nM; in test [3] it was 1370 nM; in test [4], 6630 nM; in test [5] it was < 7.81 nM; in test [6], 198 nM. Further, in test [7], the IC50 was > 5000 nM.

As to Mewo (melanoma, adherent), the AUC in test [1] was determined as 0.973; in test [2], 0.984; in test [3], 0.817; in test [4], 0.91; in test [5] it was 0.65; in test [6] it was 0.973. In addition, in test [7], the AUC came to 0.979. Moreover, the concentration for half-maximal inhibition (IC50) in test [1] was > 8000 nM; in test [2], > 10200 nM; in test [3], 7030 nM; in test [4], > 16000 nM; in test [5], 355 nM; in test [6] it was > 16000 nM. Also, in test [7], the concentration for half-maximal inhibition (IC50) was > 5000 nM.

On to NCI-H23 (lung adenocarcinoma, adherent), for which the AUC in test [1] is 0.982; in test [2], 0.938; in test [3], 0.607; in test [4], 0.898; in test [5] it was 0.725; in test [6], 0.986. Also, in test [7], the AUC came to 0.965. Also, the half-maximal inhibitory concentration (IC50) is > 8000 nM in test [1]; > 10200 nM in test [2]; 1220 nM in test [3]; > 16000 nM in test [4]; 541 nM in test [5]; > 16000 nM in test [6]. The half-maximal inhibitory concentration (IC50) in test [7] was > 5000 nM.

Regarding “NCI-H187 (small cell lung carcinoma, suspension)”, the AUC in test [1] turned out to be 0.987; in test [2] it was 0.629; in test [3], 0.986; in test [4], 0.906; in test [5] it was 0.946; in test [6], 0.984. In addition, the AUC in test [7] amounted to 0.982. In addition, the concentration for half-maximal inhibition (IC50) in test [1] is > 8000 nM; in test [2], 1500 nM; in test [3] it was > 10000 nM; in test [4], > 16000 nM; in test [5], > 2000 nM; in test [6], > 16000 nM. In addition, the half-maximal inhibitory concentration (IC50) in test [7] was > 5000 nM.

Take “NCI-H441 (lung adenocarcinoma, adherent)”: the AUC worked out at 0.886 in test [1]; 0.968 in test [2]; 0.811 in test [3]; 0.969 in test [4]; 0.887 in test [5]; 0.863 in test [6]. Moreover, the AUC in test [7] stood at 0.953. The IC50 in test [1] was > 8000 nM; in test [2], > 10200 nM; in test [3] it was 8310 nM; in test [4] it was > 16000 nM; in test [5] it was > 2000 nM; in test [6] it was > 16000 nM. Moreover, in test [7], the concentration for half-maximal inhibition (IC50) was > 5000 nM.

For “NCI-H446 (small cell lung carcinoma, semi-adherent)”, the AUC in test [1] amounted to 0.985; in test [2], 0.272; in test [3], 0.623; in test [4] it was 0.857; in test [5], 0.714; in test [6] it was 0.895. For the same cell line, the AUC in test [7] was found to be 0.897. Moreover, the IC50 was > 8000 nM in test [1]; 136 nM in test [2]; 1400 nM in test [3]; 14500 nM in test [4]; 529 nM in test [5]; > 16000 nM in test [6]. Further, the half-inhibitory concentration (IC50) in test [7] is > 5000 nM.

Regarding “NCI-H460 (large cell lung carcinoma, adherent)”, the AUC in test [1] is 0.987; in test [2], 0.938; in test [3], 0.688; in test [4] it was 0.916; in test [5] it was 0.553; in test [6], 0.72. The AUC in test [7] worked out at 0.989. Besides, the 50% inhibitory concentration (IC50) in test [1] was > 8000 nM; in test [2] it was > 10200 nM; in test [3] it was 1980 nM; in test [4] it was > 16000 nM; in test [5], 172 nM; in test [6] it was 3920 nM. Also, in test [7], the half-maximal inhibitory concentration (IC50) was > 5000 nM.

As a reminder, the IC50 is the midpoint of a concentration-inhibition curve.
